From patent publication US20240182596A1, “ANTI-NAPI2B ANTIBODIES AND ANTIBODY-DRUG-CONJUGATES BASED THEREON, THERAPEUTIC METHODS AND USES THEREOF” (Tubulis GmbH, priority 2022, published 2024)

Key:
[1] = molecular target: T1, purified recombinant human Napi2b antigen (Napi2b-extracellular-loop2 Fc-fusion-6-His) (Homo sapiens, UniProt O95436); assay: Binding to immobilized human NaPi2B evaluated by ELISA; details: one-site specific binding model, n=2
T1 construct: Napi2b antigen consisting of Napi2b-extracellular-loop2 expressed as Fc-fusion-6-His-tagged protein in Expi-HEK293 cells; Fc-fusion; 6-His; made in house; host or cells: Expi-HEK293 cells
T1 sequence (O95436 234-362 limits assumed): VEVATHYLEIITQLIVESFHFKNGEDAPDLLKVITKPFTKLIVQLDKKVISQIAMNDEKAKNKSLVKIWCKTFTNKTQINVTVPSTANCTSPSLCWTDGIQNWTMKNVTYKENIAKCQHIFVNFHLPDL
Procedure: Binding of increasing concentrations of parental mAb and AV mAb clones to a purified recombinant immobilized human Napi2b antigen was tested in an ELISA setting.
To determine binding of parental and AV mAb clones to Napi2b antigen, flat-bottom surface-treated 96-well-plates (Nunclon, Thermo Fisher Scientific) were coated with 1 μg/mL purified recombinant human Napi2b antigen consisting of Napi2b-extracellular-loop2 expressed as Fc-fusion-6-His-tagged protein in Expi-HEK293 cells. After blocking with 2% bovine serum albumin (Carl Roth) in 1× PBS-Tween 20 (0.05%), increasing antibody concentrations (0.00015, 0.00046, 0.00137, 0.00412, 0.01235, 0.03704, 0.11111, 0.33333, 1.00000, 3.00000, 9.00000 μg/ml) were allowed to bind for 2 hr at room temperature. Bound antibodies were detected by incubation with HRP-conjugated goat anti-human kappa light chain secondary antibody (dilution 1:10000 in blocking solution) for 1 hr at RT. […] Absorbance at 450 nm was measured within 10 min of addition of acid using a microplate reader Infinite M1000 Pro (Tecan). Apparent dissociation constants (KD) were derived by non-linear regression using a one-site specific binding model using Prism 9 software. KD in μg/ml, 0.02209 parental mAb, 0.01581 AV15, 0.01494 AV18, 0,01248 AV21, 0,01060 AV25, 0.01238 AV29.

[2] = molecular target: T2, HEK293 cells expressing human Napi2b (SLC34A2) (Homo sapiens, UniProt O95436); assay: Binding to human NaPi2b evaluated by flow cytometry (specificity); details: 0.002 to 200 nM
T2 construct: expressed in transfected cells; host or cells: HEK293
T2 sequence (O95436 1-690): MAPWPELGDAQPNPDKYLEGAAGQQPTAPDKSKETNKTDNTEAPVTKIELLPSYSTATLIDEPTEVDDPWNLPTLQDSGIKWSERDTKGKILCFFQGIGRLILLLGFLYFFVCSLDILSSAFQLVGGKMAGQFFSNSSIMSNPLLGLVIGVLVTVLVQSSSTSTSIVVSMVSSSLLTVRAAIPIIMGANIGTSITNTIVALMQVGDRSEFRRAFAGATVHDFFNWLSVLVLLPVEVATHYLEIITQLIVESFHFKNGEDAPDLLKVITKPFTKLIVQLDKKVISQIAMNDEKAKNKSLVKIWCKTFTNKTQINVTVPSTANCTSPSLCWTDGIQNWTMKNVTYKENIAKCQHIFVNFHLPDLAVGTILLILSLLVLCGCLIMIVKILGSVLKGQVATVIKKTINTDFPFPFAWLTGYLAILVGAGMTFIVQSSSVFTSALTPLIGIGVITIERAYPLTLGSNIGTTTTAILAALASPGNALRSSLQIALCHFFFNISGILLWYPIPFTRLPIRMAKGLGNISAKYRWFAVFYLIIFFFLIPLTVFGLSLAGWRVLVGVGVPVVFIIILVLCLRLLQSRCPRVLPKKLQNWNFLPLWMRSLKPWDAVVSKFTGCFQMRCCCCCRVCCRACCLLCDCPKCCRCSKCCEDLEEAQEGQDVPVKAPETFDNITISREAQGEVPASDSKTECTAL
Procedure: To determine concentration-dependent binding, HEK293 cells transiently or stably expressing human Napi2a-, Napi2b- and Napi2c-mCherry were incubated with antibodies or ADCs in concentrations ranging from 0.002 to 200 nM, stained with an Alexa-dye-labeled anti-human IgG H+L secondary antibody (Thermo Fisher Scientific), and analyzed by flow cytometry. Mean fluorescence intensity (MFI) ratios were normalized to the non-specific binding control. The assay was performed in duplicates and data points were analyzed by a non-linear regression using a one-site specific binding model using Prism 9 software.

[3] = test system: OVCAR-3 and HCC-78; assay: Calcein release-based ADCC assay with human NK cells; type: cell-based; details: 15 μg/ml, NK:target 4:1, 4 h
Procedure: • and AV25-P5(PEG24)-VC-PAB-Exatecan DAR8 vs the isotypes and an anti-MHC-I positive control (Invivogen) was analyzed, which is mediated after interaction with FcγRIIIa (CD16). For the Calcein release-based antibody-dependent cellular cytotoxicity (ADCC) assay, peripheral blood mononuclear cells (PBMCs) were isolated from healthy donor buffy coats (purchased from DONAS GmbH) using LeucoSep tubes (Greiner Bio-One) and Histopaque®-1077 (density 1.077 g/ml, Merck) density gradient according to standard protocols. Afterwards, natural killer (NK) cells were MACS (magnetic cell separation)-sorted using human NK cell isolation kit (Miltenyi Biotec) by negative selection according to the manufacturer's instructions yielding untouched human primary NK cells. Napi2b-positive target cells OVCAR-3 and HCC-78 (both Napi2b^high) were stained with 16 μM Calcein AM (Thermo Fisher Scientific). 40.000 NK cells and 10.000 Calcein-stained target cells were incubated at a 4:1 ratio in the presence of 15 μg/ml antibodies or ADCs. Cells permeabilized with 2.5% Triton X 100 (Merck) served as a positive control for maximum Calcein release. After 4 h, supernatants were transferred to a flat black non-binding 96-well plate (Greiner Bio-One) and fluorescence was measured at 485/535 nM via the Infinite M200 Pro reader (Tecan). The percent specific killing was calculated by dividing the Calcein released by antibody-mediated killing minus background Calcein release (NKs+targets) from Calcein released by Triton X-permeabilized cells (maximum killing) minus background Calcein release (targets only). Graphs show means of n=2±SEM.
Co-cultures of healthy donor (HD)-derived NK cells and calcein-stained target-positive tumor cells (OVCAR-3 and HCC-78), in a 4:1 ratio, were incubated with 15 μg/ml of indicated antibodies or ADCs (anti-MHC-I antibody served as positive control). The percentage of specific killing was calculated by deviding the calcein released by antibody-mediated cell killing from calcein released by Triton X-permeabilized cells (maximum killing). Graphs show means of n=2±SEM.

[4] = 10 and 20 mg/kg i.v.

B1: AV25: humanized anti-NaPi2b IgG1 antibody, light chain SEQ ID NO: 6, heavy chain SEQ ID NO: 7, Fc-silenced (LALA) (antibody)
heavy: EVQLVQSGAEVVKPGASVKMSCKASGYTFTGYIIHWVKQAPGQGLEWIGAIYPGSGATSYKQKFRGRATLTADTSTSTVYMELSSLRSEDSAVYYCARGETARATFAYWGQGTLVTVSS[human IgG1 constant region with changes skipped]
light: DIQMTQSPSSLSASVGDRVTITCSASQDIGNFLNWYQQKPGKTVKVLIYYASSLYSGVPSRFSGSGSGTDYTLTISSLQPEDFATYYCQQYSKLPLTFGQGTKLELKRTVAAPSVFIFPPSDEQLKSGTASVVCLLNNFYPREAKVQWKVDNALQSGNSQESVTEQDSKDSTYSLSSTLTLSKADYEKHKVYACEVTHQGLSSPVTKSFNRGEC
modifications: Heavy chain without a signal seqeunce; Light chain without a signal seqeunce
With B1 the “Apparent dissociation constants (KD)” value [1] was 0,01060 μg/ml, the “Binding (MFI ratio)” value [2] was “only shows binding to HEK293 cells overexpressing Napi2b” and the “Binding (MFI ratio)” value ([2]; listed as AV25 mAb) was “bind specifically to NaPi2b”. The “ADCC activity (specific killing)” value [3] was “did not induce ADCC or only in very low amounts”.

B2: AV25-P5(PEG24)-VC-PAB-Exatecan DAR 8: AV25 antibody conjugated to P5(PEG24)-VC-PAB-Exatecan, DAR8 (conjugate)
heavy: EVQLVQSGAEVVKPGASVKMSCKASGYTFTGYIIHWVKQAPGQGLEWIGAIYPGSGATSYKQKFRGRATLTADTSTSTVYMELSSLRSEDSAVYYCARGETARATFAYWGQGTLVTVSS[human IgG1 constant region with changes skipped]
light: DIQMTQSPSSLSASVGDRVTITCSASQDIGNFLNWYQQKPGKTVKVLIYYASSLYSGVPSRFSGSGSGTDYTLTISSLQPEDFATYYCQQYSKLPLTFGQGTKLELKRTVAAPSVFIFPPSDEQLKSGTASVVCLLNNFYPREAKVQWKVDNALQSGNSQESVTEQDSKDSTYSLSSTLTLSKADYEKHKVYACEVTHQGLSSPVTKSFNRGEC
For B2, the “PK exposure profile / in vivo clearance” value [4] was “good exposure profile, without enhanced in vivo clearance”, the “Binding (MFI ratio)” value [2] was “bind specifically to NaPi2b” and the “ADCC activity (specific killing)” value [3] was “did not induce ADCC or only in very low amounts”.
